To fix the notation:
B1: tRNA (parent)
chain: CUCUCGGUAGCCAAGUUGGUUUAAGGCGCAAGACUUUAAUUUAUCACUACGAAAUCUUGAGAUCGGGCGUUCGACUCGCCCCCGGGAGAUUUUUUCCUCGAGCAA

This sample is rich in variants without activity. Bounds are passed on as bounds.

The series covers variants of B1. In words: nonsense suppression (GFP-seq) (ratio to wild type); higher = more function; SUP4oc tRNA, yeast GFP reporter sort-seq. A digest of the protocol: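 To measure nonsense suppression, tRNA variants from a library carrying ~3% random mutations were integrated into the yeast genome alongside RFP and a GFP ochre reporter under galactose control. Growth took place in raffinose/galactose medium supplemented with 80 mg/L adenine, followed by sorting into GFP/RFP bins and Illumina sequencing of each bin (phred ≥30). For each variant with ≥100 reads and ≥30 cells, the bin median GFP/RFP values were weighted by its estimated cell share per bin and referenced to the unmutated parent tRNA.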
With U55G C64G C75U, the nonsense suppression was at most 0.026.

On to C5A A30G C34G U70C, for which the nonsense suppression was at most 0.026.

Turning to G7C G18U U20G A30C A87C, the nonsense suppression is at most 0.026.

For the variant A31G C72U, the nonsense suppression is at most 0.026.

For the variant A14U U63C G73A, the nonsense suppression was at most 0.026.

Take G6A U17A G59U: the nonsense suppression was at most 0.026.

For the variant C5U G15A U21A C34G G61U, the nonsense suppression was at most 0.026.

With C1G C29A C34U, the nonsense suppression was at most 0.026.

As for A14U U16C G73C A89U, the nonsense suppression is at most 0.026.

U20A U57C: the nonsense suppression is at most 0.026.

Consider C1U G10A U17G U70G, for which the nonsense suppression was at most 0.026.

U22C A24G U35C U71G: the nonsense suppression is at most 0.026.

As to U4G A54U C72U C82G G86A, the nonsense suppression was at most 0.026.

For A14U G69C C79A, the nonsense suppression is at most 0.026.

Take A24C G28A C29A: the nonsense suppression was at most 0.026.

For the variant C29U C77U, the nonsense suppression is at most 0.026.

Regarding U76G G78U G86A, the nonsense suppression is at most 0.026.

As to C56A C83G, the nonsense suppression was at most 0.026.

On to U16C A33U C72G, for which the nonsense suppression is at most 0.026.

In the case of U21G G59C U71C G84A A89G, the nonsense suppression was at most 0.026.

Turning to A9C U21G U70G, the nonsense suppression was at most 0.026.

Take G61A G66C U76C C79G: the nonsense suppression is at most 0.026.

On to C5U A9C A13G U57G G59A U71A U76A, for which the nonsense suppression was at most 0.026.

Consider U4C C11A, for which the nonsense suppression is at most 0.026.

As for U4C A23U G59U G61C C68U, the nonsense suppression was at most 0.026.

For G10C U58G G61A G85C, the nonsense suppression was at most 0.026.

Consider A60G C64G G69A G73U C82A, for which the nonsense suppression was at most 0.026.

As for C27A C72U, the nonsense suppression is at most 0.026.

As to C1U U55A G69C G85A, the nonsense suppression was at most 0.026.

Turning to C11U U57G, the nonsense suppression was at most 0.026.

For the variant G10C G18C, the nonsense suppression is at most 0.026.

For A9G A30C C34U G59C U70G, the nonsense suppression was at most 0.026.

On to A13C G61U C68U, for which the nonsense suppression amounted to 0.414.

Take C5U G26A C34A: the nonsense suppression is at most 0.026.

Regarding C3A U20C C34A U76A, the nonsense suppression is at most 0.026.

For U20C C27U A33U G73A, the nonsense suppression is at most 0.026.

For the variant A9U C12G G15A G88C, the nonsense suppression is at most 0.026.

Take U4C C5A U17C G28C U35A C79A C82A: the nonsense suppression was at most 0.026.

In the case of G25C G69A, the nonsense suppression was at most 0.026.

As to G19A A33G G85U, the nonsense suppression was at most 0.026.

Consider G6C U20G C29A A30C, for which the nonsense suppression is at most 0.026.

For the variant G15U G25A G28U G84U, the nonsense suppression was at most 0.026.

Take U20G C56U: the nonsense suppression is 0.148.

In the case of G18C C34A C80G, the nonsense suppression is at most 0.026.

With U20G A31C A33G G67A C79G C82A, the nonsense suppression was at most 0.026.

Consider U35A U55C, for which the nonsense suppression was at most 0.026.

As for G7C A23G A33U G69A G85A, the nonsense suppression is at most 0.026.

On to U8G U58A G61A C77A, for which the nonsense suppression is at most 0.026.

As to G7A G25C G61U U63G C64G, the nonsense suppression was at most 0.026.

Take C11A C56G: the nonsense suppression is at most 0.026.

For A9G C83G G88A, the nonsense suppression is at most 0.026.

On to A9G C12G, for which the nonsense suppression was at most 0.026.

Consider A9G C12A, for which the nonsense suppression is at most 0.026.

A14G G26C G61A G65A G67C U70G A89G: the nonsense suppression was at most 0.026.

As for C1A G32U, the nonsense suppression is at most 0.026.

Take U21G: the nonsense suppression was found to be 1.04.

Consider A60U G65C C81G, for which the nonsense suppression was 0.203.

For U17C A31U C68G C80A, the nonsense suppression was at most 0.026.

With U8C A9U, the nonsense suppression is at most 0.026.

Regarding G7U C11U U58G, the nonsense suppression is at most 0.026.

Regarding U21A A54G, the nonsense suppression was at most 0.026.

In the case of G78A A87G, the nonsense suppression came to 0.294.

Consider G28C G61C, for which the nonsense suppression is 0.386.

Regarding G28C U55G, the nonsense suppression is at most 0.026.

Take C3A U57A: the nonsense suppression is at most 0.026.

As for U8C G15U G19U A24G, the nonsense suppression was at most 0.026.

For the variant C29G G73A C82G, the nonsense suppression was at most 0.026.

Regarding C11U G25A U35C U76G, the nonsense suppression was at most 0.026.

Regarding G26C C83U, the nonsense suppression was at most 0.026.

Consider A9C A30G U58C U63G, for which the nonsense suppression was at most 0.026.

Turning to A23U A30C C56U, the nonsense suppression is at most 0.026.

In the case of C5G U57A, the nonsense suppression is at most 0.026.

On to U22A C82A, for which the nonsense suppression was at most 0.026.

As to U2C A31U G67C G73U, the nonsense suppression is at most 0.026.

Consider C5G A24G G26A U63G G67A, for which the nonsense suppression was at most 0.026.

For the variant G65A, the nonsense suppression is at most 0.026.

For the variant C12U A54G, the nonsense suppression turned out to be 0.0372.

For the variant C5A U16G C27A G65C G86U, the nonsense suppression was at most 0.026.

In the case of U2C A30U, the nonsense suppression is at most 0.026.

For the variant C5U G6A C11A G25A, the nonsense suppression is at most 0.026.

Turning to U17A U76G, the nonsense suppression was at most 0.026.

Regarding U2G U58G C83G, the nonsense suppression is at most 0.026.

Regarding C11A G66C, the nonsense suppression is at most 0.026.

For the origin of these results see the RNAGym collection of RNA variant scans (doi:10.1101/gad.245936.114).
